Results reported in patent US20170088602A1 (Bristol-Myers Squibb, published 2017).

B1: PRD-932 (Fc fusion)
chain: [no letters for human IgG1 Fc with changes and a few adjoining residues]GGGGSGGVSDVPRDLEVVAATPTSLLISWSLPYAGHLNYYRITYGETGGNSPVQEFTVPGRGVTATISGLKPGVDYTITVYAVTLTKSQLIHYMPISINYRTEI
notes: Fc-linker-Adnectin (2525_D05); bivalent Fc
B2: PRD-1304 (Fc fusion)
chain: GVSDVPRDLEVVAATPTSLLISWSLPNPGNAHYYRITYGETGGNSPVQEFTVPGRGVTATISGLKPGVDYTITVYAVTVTDTGFITYKPISINYRTEI[no letters for human IgG1 Fc with changes]
notes: Adnectin (3146_A08)-linker-Fc
B3: PRD-1171 (Fc fusion)
chain: GVSDVPRDLEVVAATPTSLLISWTLPHAGRAHYYRITYGETGGNSPVQEFTVPGRGVTATISGLKPGVDYTITVYAVTVTTTKVIHYKPISINYRTEI[no letters for human IgG1 Fc with changes]
notes: Adnectin (2987_H07)-linker-Fc
B4: PRD-1305 (Fc fusion)
chain: GVSDVPRDLEVVAATPTSLLISWSLPHQGKANYYRITYGETGGNSPVQEFTVPGRGVTATISGLKPGVDYTITVYAVTVTDTGYLKYKPISINYRTEI[no letters for human IgG1 Fc with changes]
B5: PRD-1173 (Fc fusion)
chain: GVSDVPRDLEVVAATPTSLLISWTLPHAGRAHYYRITYGETGGNSPVQEFTVPGRGVTATISGLKPGVDYTITVYAVTVTTTKVIHYKPISINYRTEI[no letters for human IgG1 Fc]
notes: Adnectin (2987_H07)-linker-Fc
B6: PRD-1174 (Fc fusion)
chain: GVSDVPRDLEVVAATPTSLLISWTLPHAGRAHYYRITYGETGGNSPVQEFTVPGRGVTATISGLKPGVDYTITVYAVTVTTTKVIHYKPISINYRTEIESPKAQASSVPTAQPQAEGL[no letters for human IgG1 Fc]
notes: Adnectin (2987_H07)-linker-Fc
B7: PRD-1175 (Fc fusion)
chain: [no letters for human IgG1 Fc]GGGGSGGVSDVPRDLEVVAATPTSLLISWTLPHAGRAHYYRITYGETGGNSPVQEFTVPGRGVTATISGLKPGVDYTITVYAVTVTTTKVIHYKPISINYRTEI
notes: Fc-linker-Adnectin (2987_H07)
B8: PRD-1288 (Fc fusion)
chain: [no letters for human IgG1 Fc and a few adjoining residues]QLEESAAEAQDGELDGVSDVPRDLEVVAATPTSLLISWSLPHQGKANYYRITYGETGGNSPVQEFTVPGRGVTATISGLKPGVDYTITVYAVTVTDTGYLKYKPISINYRTEI
B9: PRD-1177 (Fc fusion)
chain: [no letters for human IgG1 Fc and a few adjoining residues]QLEESAAEAQDGELDGVSDVPRDLEVVAATPTSLLISWTLPHAGRAHYYRITYGETGGNSPVQEFTVPGRGVTATISGLKPGVDYTITVYAVTVTTTKVIHYKPISINYRTEI
notes: Fc-linker-Adnectin (2987_H07)
B10: PRD-1287 (Fc fusion)
chain: [no letters for human IgG1 Fc and a few adjoining residues]QLEESAAEAQDGELDGVSDVPRDLEVVAATPTSLLISWSLPNPGNAHYYRITYGETGGNSPVQEFTVPGRGVTATISGLKPGVDYTITVYAVTVTDTGFITYKPISINYRTEI
notes: Fc-linker-Adnectin (3146_A08)
B11: PRD-1471 (Fc fusion)
chain: [no letters for human IgG1 Fc and a few adjoining residues]QLEESAAEAQEGELEGVSDVPRDLEVVAATPTSLLISWTLPHAGRAHYYRITYGETGGNSPVQEFTVPGRGVTATISGLKPGVDYTITVYAVTVTTTKVIHYKPISINYRTEI
notes: Fc-linker-Adnectin (2987_H07)
B12: PRD-1474 (Fc fusion)
chain: [no letters for human IgG1 Fc and a few adjoining residues]QLEESAAEAQEGELEGVSDVPRDLEVVAATPTSLLISWSLPHQGKANYYRITYGETGGNSPVQEFTVPGRGVTATISGLKPGVDYTITVYAVTVTDTGYLKYKPISINYRTEI
B13: PRD-1178 (Fc fusion)
chain: [no letters for human IgG1 Fc]PDEPGGSGVSDVPRDLEVVAATPTSLLISWTLPHAGRAHYYRITYGETGGNSPVQEFTVPGRGVTATISGLKPGVDYTITVYAVTVTTTKVIHYKPISINYRTEI
notes: Fc-linker-Adnectin (2987_H07)
B14: PRD-1180 (Fc fusion)
chain: [no letters for human IgG1 Fc]SGSGSGSGSGSGVSDVPRDLEVVAATPTSLLISWTLPHAGRAHYYRITYGETGGNSPVQEFTVPGRGVTATISGLKPGVDYTITVYAVTVTTTKVIHYKPISINYRTEI
notes: Fc-linker-Adnectin (2987_H07)
B15: PRD-1285 (Fc fusion)
chain: [no letters for human IgG1 Fc and a few adjoining residues]QLEESAAEAQDGELDGVSDVPRDLEVVAATPTSLLISWDAPAGLARYYRITYGETGGNSPVQEFTVVGRGNTATISGLKPGVDYTITVYAVTIFRDGPVTWDPISINYRTEI
notes: Fc-linker-Adnectin (3115_E06)
B16: PRD-1284 (Fc fusion)
chain: [no letters for human IgG1 Fc and a few adjoining residues]QLEESAAEAQDGELDGVSDVPRDLEVVAATPTSLLISWDAPRGLARYYRITYGETGGNSPVQEFTVFGRGTTATISGLKPGVDYTITVYAVTIDRDGTRSFDPISINYRTEI
notes: Fc-linker-Adnectin (3115_D04)
B17: PRD-1286 (Fc fusion)
chain: [no letters for human IgG1 Fc and a few adjoining residues]QLEESAAEAQDGELDGVSDVPRDLEVVAATPTSLLISWDAPKGLARYYRITYGETGGNSPVQEFTVVGRGNTATISGLKPGVDYTITVYAVTIFRDGPVTWDPISINYRTEI
B18: PRD-1472 (Fc fusion)
chain: [no letters for human IgG1 Fc and a few adjoining residues]QLEESAAEAQEGELEGVSDVPRDLEVVAATPTSLLISWDAPAGLARYYRITYGETGGNSPVQEFTVVGRGNTATISGLKPGVDYTITVYAVTIFRDGPVTWDPISINYRTEI
notes: Fc-linker-Adnectin (3115_E06)
B19: PRD-1473 (Fc fusion)
chain: [no letters for human IgG1 Fc and a few adjoining residues]QLEESAAEAQEGELEGVSDVPRDLEVVAATPTSLLISWDAPKGLARYYRITYGETGGNSPVQEFTVVGRGNTATISGLKPGVDYTITVYAVTIFRDGPVTWDPISINYRTEI
B20: PRD-1302 (Fc fusion)
chain: GVSDVPRDLEVVAATPTSLLISWDAPAGLARYYRITYGETGGNSPVQEFTVVGRGNTATISGLKPGVDYTITVYAVTIFRDGPVTWDPISINYRTEI[no letters for human IgG1 Fc with changes]
notes: Adnectin (3115_E06)-linker-Fc
B21: PRD-1301 (Fc fusion)
chain: GVSDVPRDLEVVAATPTSLLISWDAPRGLARYYRITYGETGGNSPVQEFTVFGRGTTATISGLKPGVDYTITVYAVTIDRDGTRSFDPISINYRTEI[no letters for human IgG1 Fc with changes]
notes: Adnectin (3115_D04)-linker-Fc
B22: PRD-1303 (Fc fusion)
chain: GVSDVPRDLEVVAATPTSLLISWDAPKGLARYYRITYGETGGNSPVQEFTVVGRGNTATISGLKPGVDYTITVYAVTIFRDGPVTWDPISINYRTEI[no letters for human IgG1 Fc with changes]

These binders were tested against T1, human myostatin (mature, recombinant; R&D Systems) (human, UniProt O14793 267-375) (assay: SPR format B, 25C).
T1 construct: biotinylated in the mRNA display selection; also called GDF-8; mature myostatin
T1 sequence: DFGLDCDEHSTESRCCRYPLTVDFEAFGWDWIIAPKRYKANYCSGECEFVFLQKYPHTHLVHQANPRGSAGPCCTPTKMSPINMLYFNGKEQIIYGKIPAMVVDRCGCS

Binder | Kd [nM]
B1 | 1.43

These binders were tested against T1, human myostatin (mature, recombinant; …) (assay: cell-based or functional assay).

Binder | ARE-luciferase IC50 [nM]
B1 | 0.24

Each binder was assayed against T2, human Activin A (R&D Systems) (human, UniProt P08476 311-426) (assay: cell-based or functional assay).
T2 sequence (looked up): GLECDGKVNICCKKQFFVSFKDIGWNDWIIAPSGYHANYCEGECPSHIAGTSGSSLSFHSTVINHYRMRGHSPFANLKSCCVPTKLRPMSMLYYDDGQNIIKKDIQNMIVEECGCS

Binder | ARE-luciferase IC50 [nM]
B2 | 45
B3 | 19
B4 | 113
B5 | 6
B6 | 4
B7 | 19
B8 | > 1000
B9 | 21
B10 | > 1000
B11 | 60
B12 | > 1000
B13 | 16
B14 | 14
B15 | 216
B16 | 44
B17 | 94
B18 | 1000
B19 | 125
B20 | 14
B21 | 15
B22 | 314

These binders were tested against T3, human BMP-11 (GDF-11; R&D Systems) (human, UniProt O95390 299-407) (assay: cell-based or functional assay).
T3 sequence (looked up): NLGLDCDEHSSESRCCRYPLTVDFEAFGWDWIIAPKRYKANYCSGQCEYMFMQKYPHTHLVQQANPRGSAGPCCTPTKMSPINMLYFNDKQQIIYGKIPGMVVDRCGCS

Binder | ARE-luciferase IC50 [nM]
B2 | 0.07
B3 | 0.2
B4 | 0.07
B5 | 0.1
B6 | 0.1
B7 | 0.28
B8 | 0.1
B9 | 0.28
B10 | 0.8
B11 | 0.16
B13 | 0.25
B14 | 0.11
B15 | 0.03
B16 | 0.04
B17 | 0.11
B18 | 0.05
B19 | 0.06
B20 | 0.02
B21 | 0.06
B22 | 0.03
